Experimental data published in PMC4336329 (PLoS ONE, 2015).
The whole screen tested about 310,000 compounds, of which about 14,000 (4.5%) showed an effect of 50% or more. Effects have a minus sign here. The list shows a part of the results.

Each compound was assayed against human ether-à-go-go-related gene (hERG) potassium channel (human, UniProt Q12809) (assay: primary screen, population patch clamp on CHO cells stably expressing hERG).
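Note: peak tail current of the secondary pulse compared with the same well before compound.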

Sequence of human ether-à-go-go-related gene (hERG) potassium channel (Q12809 whole entry, looked up): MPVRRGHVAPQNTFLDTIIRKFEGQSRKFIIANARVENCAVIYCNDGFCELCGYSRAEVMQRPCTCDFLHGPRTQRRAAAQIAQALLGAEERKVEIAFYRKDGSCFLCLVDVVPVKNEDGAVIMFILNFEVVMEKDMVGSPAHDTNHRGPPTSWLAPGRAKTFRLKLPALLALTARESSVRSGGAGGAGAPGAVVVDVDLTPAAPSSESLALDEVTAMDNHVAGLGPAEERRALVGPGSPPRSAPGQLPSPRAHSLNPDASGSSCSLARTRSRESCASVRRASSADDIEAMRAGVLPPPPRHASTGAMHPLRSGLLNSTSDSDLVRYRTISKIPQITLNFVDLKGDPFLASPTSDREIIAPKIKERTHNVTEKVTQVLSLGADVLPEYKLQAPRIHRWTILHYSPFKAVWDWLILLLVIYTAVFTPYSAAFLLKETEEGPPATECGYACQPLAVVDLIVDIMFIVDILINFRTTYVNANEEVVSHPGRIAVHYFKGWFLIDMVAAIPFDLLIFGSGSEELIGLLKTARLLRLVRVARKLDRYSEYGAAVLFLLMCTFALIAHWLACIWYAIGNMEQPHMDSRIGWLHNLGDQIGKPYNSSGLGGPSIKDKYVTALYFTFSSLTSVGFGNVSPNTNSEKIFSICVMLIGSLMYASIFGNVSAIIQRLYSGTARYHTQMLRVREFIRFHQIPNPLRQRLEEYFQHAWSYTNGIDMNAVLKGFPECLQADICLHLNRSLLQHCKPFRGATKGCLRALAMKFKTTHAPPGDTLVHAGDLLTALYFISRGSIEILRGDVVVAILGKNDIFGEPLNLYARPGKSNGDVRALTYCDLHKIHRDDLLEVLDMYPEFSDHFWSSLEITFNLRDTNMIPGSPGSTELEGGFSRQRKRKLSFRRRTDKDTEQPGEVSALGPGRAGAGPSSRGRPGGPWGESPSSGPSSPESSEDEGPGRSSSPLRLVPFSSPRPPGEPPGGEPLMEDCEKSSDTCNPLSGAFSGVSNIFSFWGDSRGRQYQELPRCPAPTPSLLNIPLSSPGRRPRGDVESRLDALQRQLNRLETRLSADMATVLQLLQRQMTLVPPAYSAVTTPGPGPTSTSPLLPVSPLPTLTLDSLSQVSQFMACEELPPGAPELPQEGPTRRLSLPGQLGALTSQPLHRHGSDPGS

SMILES	hERG current change (%, negative = inhibition) at 10uM [%]
COc1ccc(C2=NO[C@@H]3C(=O)N(Cc4ccccc4)C(=O)[C@H]23)c(OC)c1	12.8
Cc1oc(-c2ccc(Cl)cc2)nc1CN1CCC(C(=O)NCc2cccs2)CC1	-61.5
CCCCNC(=O)COc1ccccc1[N+](=O)[O-]	-14
O=C(NCCCN=C1NS(=O)(=O)c2ccccc21)c1ccccc1Cl	4.04
COc1ccc(C/C(C)=N\NC(=O)c2cn(C)c3ccccc23)cc1OC	12.7
CCCN1CCN(CCCNC(=O)c2cc3c(=O)[nH]c4ccc(C)cc4c3s2)CC1	-29.5
CC(=NCc1ccccc1)C1=C(O)COC1=O	11.8
CCn1c(CNC(=O)c2ccccc2F)nnc1SCCOc1ccccc1	-7.93
Cc1ccc(NC(=O)Nc2cccc3ccccc23)cc1	19.5
O=C(O)c1cc(-c2ccccc2)nn1CC1CC(c2cccnc2)=NO1 (stereo not drawn)	6.86
COc1ccccc1NC(=O)Cn1nnc(C(=O)NCc2cccs2)c1N	3.37
CCOC(=O)c1c(C2CC2)csc1NC(=O)COC(=O)CCS(=O)(=O)c1ccc(C)cc1	5.79
OCCOCCn1c(C2CCCN2c2nc(-c3ccc(F)cc3)cs2)nc2cc(Cl)c(Cl)cc21 (stereo not drawn)	-28.7
COc1ccccc1CNC(=O)COC(=O)CSc1ccc(Cl)cc1	-11
CC(C)COc1ccc(C(=O)Nc2ccc(NC(=O)c3ccco3)cc2)cc1	10
O=C1c2ccsc2SCCN1Cc1ccc(Cl)cc1Cl	-15.3
COc1ccc(C(CC(=O)Nc2ccccc2OC)n2cccc2)cc1 (stereo not drawn)	-16.2
Cc1nnc(C)n1/N=C/c1ccc(C(C)C)cc1	-20.7
C(=C\c1ccccc1)/C=N/Nc1nncc(-c2ccccc2)n1	-22.1
Cc1ccc(C(=O)N/N=C\C=C\c2ccccc2[N+](=O)[O-])cn1	-0.634
C=Cn1cc[n+](CC(=O)c2ccc(Cl)c(Cl)c2)c1.[Br-]	0.216
O=C1/C(=C/c2ccc(O)c([N+](=O)[O-])c2)SC(=S)N1Cc1ccccc1	11.1

SMILES	hERG current change (%, negative = inhibition) at 10uM [%]
Cc1occc1C(=O)N/N=C/c1ccc(Cl)c([N+](=O)[O-])c1	7.04
CC(=O)N1CCC(=NNC(=O)CSc2cc(C)c(Br)cc2C)CC1	6.38
Cc1cc(C)cc(NC(=O)CSc2ncc(S(=O)(=O)c3ccccc3)c(=O)[nH]2)c1	13.6
CCN1CCN(Cc2cc(=O)oc3cc4c(cc23)CCC4)CC1	-29.7
CCCCCn1c(=O)c(C(=O)Nc2ccccc2N)c(O)c2ccccc21	21.4
CNC(=O)CC1C(=O)N(c2ccc(Cl)cc2)C(=S)N1CCc1ccc(OC)c(OC)c1 (stereo not drawn)	-15.9
CCOC(=O)c1c(NC(=O)c2c(-c3ccccc3)noc2C)sc(C)c1-c1ccccc1	-8.32
COc1ccc(N2CS(=O)CC2=O)cc1 (stereo not drawn)	9.7
CCN(C(=O)CSc1nc(-c2cccs2)nc2ccccc12)C1CCS(=O)(=O)C1 (stereo not drawn)	-95.6
Oc1c(Br)cc(Br)cc1/C=N/Nc1ccc(Cl)nn1	23.4
Cc1cc(C)n2c(SCC(=O)N(CC(C)C)c3c(N)n(CC(C)C)c(=O)[nH]c3=O)nnc2n1	29.8
CC(C)C[C@H](NC(=O)c1[nH]cnc1C(=O)N[C@@H](Cc1ccccc1)C(=O)OC(C)(C)C)C(=O)OCc1ccccc1	7.3
COc1ccc([C@H]2CC(=O)C=C(c3cccc(OCc4ccccc4)c3)C2)cc1	10.8
N#CC(C#N)=NNc1ccc(S(N)(=O)=O)cc1	6.28
Nc1c(C(=O)O)cnc2c(-c3ccc(Cl)cc3)cnn12	45.3
COc1ccc(NC(=O)CSc2nccn2-c2ccccc2)cc1	-17.8
COc1cccc(CC(=O)Nc2ccccc2C(=O)N2CCOCC2)c1	15.3
CCOC(=O)c1[nH]c2ccccc2c1NC(=S)Nc1cc(C)ccc1C	-1.47
CC(C(=O)Nc1ccc([N+](=O)[O-])cc1Cl)N1CCN(S(=O)(=O)c2cccs2)CC1 (stereo not drawn)	-40.2
CCCn1c2ccccc2c2cnn(CC(=O)NCCCN3C(C)CCCC3C)c(=O)c21 (stereo not drawn)	-41.8
O=C(C(=O)N1CCN(c2ccccc2F)CC1)c1c[nH]c2ccccc12	-26
COc1ccc(NC(=O)C(Cc2cc(C)cc(C)c2)C(C)C(=O)O)cc1 (stereo not drawn)	0.845

SMILES	hERG current change (%, negative = inhibition) at 10uM [%]
CC(C)OC(=O)c1cc2c(ccn2C)n1CC(=O)N(Cc1ccccc1)c1ccccc1	12.2
O=C(COc1coc(CN2CCN(c3ccccc3)CC2)cc1=O)NC1CCCCC1	-46.1
O=C(OCc1cccc([N+](=O)[O-])c1)c1cccnc1	-19.4
CC(=O)C1=C(O)C(=O)N(CCc2c[nH]c3ccccc23)C1c1ccc(O)cc1 (stereo not drawn)	6.64
O=C(NCCc1ccccc1)C(=O)c1c(-c2ccccc2)[nH]c2ccccc12	3.69
Cc1ccc(S(=O)(=O)/C(C#N)=C/c2ccccc2OCc2ccccc2)cc1	4.81
CCN(C(=O)CSc1cc(C)c2cccc(C)c2n1)C1CCS(=O)(=O)C1 (stereo not drawn)	16.3
O=C(O)CCSCC(=O)c1ccc2c(c1)OCCO2	9.15
CC(C)(C)c1cc(CCC(=O)NCCc2ccccn2)cc(C(C)(C)C)c1O	4.17
COc1ccc(NC(=O)CSc2nc3ccccc3c(=O)[nH]2)cc1S(N)(=O)=O	-0.505
COc1ccc(NC(=O)C2CCN(S(=O)(=O)c3c(C)nn(C)c3C)CC2)cc1	15.7
COc1ccc(Cn2nnnc2CN2CCC(O)(c3ccc(F)cc3)CC2)cc1	-14.5
CC(=O)c1cccc(NC(=O)Nc2c(C)nn(C)c2C)c1	24.4
CC1CCC/C(=N\NC(=O)COc2ccccc2Cl)C1 (stereo not drawn)	12.3
COc1ccc(N(CC(=O)NCc2cccs2)S(=O)(=O)c2c(C)n[nH]c2C)cc1	-3.7
Cc1cccc(-n2nnnc2SCC(=O)NCC2(N3CCOCC3)CCCCC2)c1C	-57.9
Fc1ccc(C2CC(c3ccco3)=NN2c2ccccc2)cc1 (stereo not drawn)	7.8
C/C(=N\NC(=S)Nc1c(C)cccc1C)c1ccc(O)cc1	-9.41
Nc1c(C(=O)Nc2ccc(Cl)cc2)oc2ccccc12	-3.23
COc1ccc(Oc2c(Cl)cnn(-c3ccccc3)c2=O)cc1	-18.3
O=C(Cn1cccn1)N1CCCC(N2CCN(Cc3ccc4c(c3)OCO4)CC2)C1 (stereo not drawn)	3
Cc1csc(=O)n1CC(=O)Nc1ccc(Cl)cc1F	-7.74

SMILES	hERG current change (%, negative = inhibition) at 10uM [%]
Cc1ccc(S(=O)(=O)Nc2cccc(NC(=O)CN3CCCCC3)c2)cc1.O=C(O)C(=O)O	-14.7
Cc1nc(S(=O)(=O)c2cccc(Cl)c2)nc2c1CCC2	-3.94
O=C1c2ccc([N+](=O)[O-])cc2C(=O)N1c1ccc(Cl)cn1	39.2
Cc1cc(-c2ccc(S(=O)(=O)N(C)Cc3ccccc3)cc2)on1	10.4
O=C(Nc1ccc(N2CCCC2)cc1)c1cccc(Cl)c1	27.1
CCn1cc(C(=O)Nc2ccc(F)c(F)c2)cn1	7.43
COc1ccc(CNS(=O)(=O)c2cc(-c3cc(C)no3)ccc2C(C)C)cc1	-14.9
O=C([O-])CC1S/C(=N/N=C/C=C/c2ccccc2)NC1=O.[Na+] (stereo not drawn)	5.14
CNC(=S)N(CCc1ccccc1)Cc1cc2cc(OC)c(OC)cc2[nH]c1=O	-22.3
CC1CCN(c2ccc3nnc(CCC(=O)Nc4ccc(F)c(F)c4)n3n2)CC1	5.64
CC(C)n1nc(C(=O)Nc2nc3ccccc3[nH]2)c2ccccc2c1=O	-35.8
CCCCc1cc2c(s1)CCCC/C2=N/O	-8.82
O=C(c1ccc(F)cc1)n1cc(C(=S)N2CCOCC2)c2ccccc21	5.62
COC(=O)N1C(=O)[C@](c2ccc(Cl)cc2)(C(C)C)N1C(=O)OC	7.07
CCC(C)(C)C1CCC(=NNC(=O)c2ccoc2C)CC1 (stereo not drawn)	6.38
C=CC(O)(C#CCN(CC)CC)c1ccccc1 (stereo not drawn)	-12.6
C/C(=N/NC(=O)c1cc(C(C)C)[nH]n1)c1cccs1	7.16
CCOC(=O)[C@@H]1[C@H]2COc3ccccc3[C@@H]2N2C(=O)N(c3ccc(C(F)(F)F)cc3)C(=O)[C@]12C	-25.3
CSCCCNC(=S)N(C)CC(=O)Nc1ccc(C)cc1	22.1
CC1CCc2sc(C(=O)NCc3ccc(F)cc3)cc2C1 (stereo not drawn)	-7.02
O=C(Nc1ccc2c(c1)OCCO2)C(=O)NC1CC1	7.97
